# Source: the supplement of paper PMC8728848
# The other results are listed elsewhere or left out.
# B1: GS14009A-pdi-495-27-495 (Parabacteroides distasonis) (protein)
# chain: FEEVNTDPDSPTDVPTTNLLAYSLYYTSYRLYDRWFAMDEPMTFCGYASKMTYIDESRYNFRTGVQDTNWEYLYRILNNLKDIEKRATFNETPNMLNVSKVMQVHLMQVATDRWRDVPYTDAAKMTDGILQPKYDKQEDIYPGLLATLKEAADGFADGGSDDLGEGDLLFGGDIEKWQRYCNSMRLRLAMRISEVSPALAKETVEEVMGNPTKYPIMESNDDNAFFWWIGTDPNYYEPMADGYRTRKTEYCAADVIVDHMNTREDPRRSSYFQPTKESVEAGEPKYVGYTIGAKANAVASKYSIWGARFFTDLAGFSPYMRVAEPWFCVAEASMLGWNTGISAEDAYNKAVTYSMEENSVSAEDIADYLANAGKFTNDKKQIYYEEWVAMFKQGMEGWSLYRRTGVPDNLYPAPGRPANYSNHNVPPFRSPYPDKERNLNNANCAPFDAEVVDNLWGKQMWWDTRTGVH
# Columns and labels:
# Experiment in all cases: glycan array binding signal (z-score within array); higher = stronger binding
# Details in all cases: glycan notation: IUPAC condensed, linker removed
# [1] = target: Fuc(a1-2)Gal6S(b1-3)GlcNAc6S
# Outline: (§1)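 Glycan array data came from 3228 arrays in the Consortium for Functional Glycomics database, and only arrays with an available protein sequence were kept. Glycan names were put into IUPAC-condensed notation, and columns mapping to the same glycan were averaged. The binding signal is a within-array Z-score, averaged across arrays of one protein sequence run at different concentrations or buffers and across linkers. A negative Z-score can be read as non-binding.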
# Fuc(a1-2)Gal6S(b1-4)Glc = target: Fuc(a1-2)Gal6S(b1-4)Glc
# Outline: as §1
# [2] = target: Fuc(a1-2)Gal6S(b1-4)Glc6S
# Outline: as §1
# Fuc(a1-2)[Gal(a1-3)]Gal = target: Fuc(a1-2)[Gal(a1-3)]Gal
# Outline: as §1
# [3] = target: Fuc(a1-2)[Gal(a1-3)]Gal(b1-3)GalNAc
# Outline: as §1
# [4] = target: Fuc(a1-2)[Gal(a1-3)]Gal(b1-3)GalNAc(b1-3)Gal(a1-4)Gal(b1-4)Glc
# Outline: as §1
# [5] = target: Fuc(a1-2)[Gal(a1-3)]Gal(b1-3)GlcNAc
# Outline: as §1
# [6] = target: Fuc(a1-2)[Gal(a1-3)]Gal(b1-3)GlcNAc(b1-2)Man(a1-3)[Fuc(a1-2)[Gal(a1-3)]Gal(b1-3)GlcNAc(b1-2)Man(a1-6)]Man(b1-4)GlcNAc(b1-4)GlcNAc
# Outline: as §1
# [7] = target: Fuc(a1-2)[Gal(a1-3)]Gal(b1-3)GlcNAc(b1-2)Man(a1-3)[Fuc(a1-2)[Gal(a1-3)]Gal(b1-3)GlcNAc(b1-2)Man(a1-6)]Man(b1-4)GlcNAc(b1-4)[Fuc(a1-6)]GlcNAc
# Outline: as §1
# [8] = target: Fuc(a1-2)[Gal(a1-3)]Gal(b1-3)GlcNAc(b1-3)GalNAc
# Outline: as §1
# [9] = target: Fuc(a1-2)[Gal(a1-3)]Gal(b1-3)GlcNAc(b1-6)GalNAc
# Outline: as §1
# [10] = target: Fuc(a1-2)[Gal(a1-3)]Gal(b1-4)Glc
# Outline: as §1
# [11] = target: Fuc(a1-2)[Gal(a1-3)]Gal(b1-4)GlcNAc
# Outline: as §1
# [12] = target: Fuc(a1-2)[Gal(a1-3)]Gal(b1-4)GlcNAc(b1-2)Man
# Outline: as §1
# [13] = target: Fuc(a1-2)[Gal(a1-3)]Gal(b1-4)GlcNAc(b1-2)Man(a1-3)[Fuc(a1-2)[Gal(a1-3)]Gal(b1-4)GlcNAc(b1-2)Man(a1-6)]Man(b1-4)GlcNAc(b1-4)GlcNAc
# Outline: as §1
# [14] = target: Fuc(a1-2)[Gal(a1-3)]Gal(b1-4)GlcNAc(b1-2)Man(a1-3)[Fuc(a1-2)[Gal(a1-3)]Gal(b1-4)GlcNAc(b1-2)Man(a1-6)]Man(b1-4)GlcNAc(b1-4)[Fuc(a1-6)]GlcNAc
# Outline: as §1
# [15] = target: Fuc(a1-2)[Gal(a1-3)]Gal(b1-4)GlcNAc(b1-3)GalNAc
# Outline: as §1
# [16] = target: Fuc(a1-2)[Gal(a1-3)]Gal(b1-4)GlcNAc(b1-3)[Fuc(a1-2)[Gal(a1-3)]Gal(b1-4)GlcNAc(b1-6)]GalNAc
# Outline: as §1
# [17] = target: Fuc(a1-2)[Gal(a1-3)]Gal(b1-4)GlcNAc(b1-6)GalNAc
# Outline: as §1
# [18] = target: Fuc(a1-2)[Gal(a1-3)]Gal(b1-4)[Fuc(a1-3)]Glc
# Outline: as §1
# [19] = target: Fuc(a1-2)[Gal(a1-3)]Gal(b1-4)[Fuc(a1-3)]GlcNAc
# Outline: as §1
# [20] = target: Fuc(a1-2)[Gal(a1-3)]Gal(b1-4)[Fuc(a1-3)]GlcNAc(b1-3)GalNAc
# Outline: as §1
# [21] = target: Fuc(a1-2)[Gal(a1-4)]Gal(b1-4)GlcNAc
# Outline: as §1
# [22] = target: Fuc(a1-2)[GalNAc(a1-3)]Gal
# Outline: as §1
# [23] = target: Fuc(a1-2)[GalNAc(a1-3)]Gal(b1-3)GalNAc(a1-3)[Fuc(a1-2)]Gal(b1-4)GlcNAc
# Outline: as §1
# [24] = target: Fuc(a1-2)[GalNAc(a1-3)]Gal(b1-3)GalNAc(b1-3)Gal(a1-4)Gal(b1-4)Glc
# Outline: as §1
# [25] = target: Fuc(a1-2)[GalNAc(a1-3)]Gal(b1-3)GlcNAc
# Outline: as §1
# [26] = target: Fuc(a1-2)[GalNAc(a1-3)]Gal(b1-3)GlcNAc(b1-2)Man(a1-3)[Fuc(a1-2)[GalNAc(a1-3)]Gal(b1-3)GlcNAc(b1-2)Man(a1-6)]Man(b1-4)GlcNAc(b1-4)GlcNAc
# Outline: as §1
# [27] = target: Fuc(a1-2)[GalNAc(a1-3)]Gal(b1-3)GlcNAc(b1-2)Man(a1-3)[Fuc(a1-2)[GalNAc(a1-3)]Gal(b1-3)GlcNAc(b1-2)Man(a1-6)]Man(b1-4)GlcNAc(b1-4)[Fuc(a1-6)]GlcNAc
# Outline: as §1
# [28] = target: Fuc(a1-2)[GalNAc(a1-3)]Gal(b1-3)GlcNAc(b1-3)GalNAc
# Outline: as §1
# [29] = target: Fuc(a1-2)[GalNAc(a1-3)]Gal(b1-3)GlcNAc(b1-6)GalNAc
# Outline: as §1
# [30] = target: Fuc(a1-2)[GalNAc(a1-3)]Gal(b1-4)Glc
# Outline: as §1
# [31] = target: Fuc(a1-2)[GalNAc(a1-3)]Gal(b1-4)GlcNAc
# Outline: as §1
# [32] = target: Fuc(a1-2)[GalNAc(a1-3)]Gal(b1-4)GlcNAc(b1-2)Man
# Outline: as §1
# [33] = target: Fuc(a1-2)[GalNAc(a1-3)]Gal(b1-4)GlcNAc(b1-2)Man(a1-3)[Fuc(a1-2)[GalNAc(a1-3)]Gal(b1-4)GlcNAc(b1-2)Man(a1-6)]Man(b1-4)GlcNAc(b1-4)GlcNAc
# Outline: as §1
# [34] = target: Fuc(a1-2)[GalNAc(a1-3)]Gal(b1-4)GlcNAc(b1-2)Man(a1-3)[Fuc(a1-2)[GalNAc(a1-3)]Gal(b1-4)GlcNAc(b1-2)Man(a1-6)]Man(b1-4)GlcNAc(b1-4)[Fuc(a1-6)]GlcNAc
# Outline: as §1
# [35] = target: Fuc(a1-2)[GalNAc(a1-3)]Gal(b1-4)GlcNAc(b1-3)Gal(b1-4)GlcNAc
# Outline: as §1
# [36] = target: Fuc(a1-2)[GalNAc(a1-3)]Gal(b1-4)GlcNAc(b1-3)Gal(b1-4)GlcNAc(b1-3)Gal(b1-4)GlcNAc
# Outline: as §1
# [37] = target: Fuc(a1-2)[GalNAc(a1-3)]Gal(b1-4)GlcNAc(b1-3)GalNAc
# Outline: as §1
# [38] = target: Fuc(a1-2)[GalNAc(a1-3)]Gal(b1-4)GlcNAc(b1-3)[Fuc(a1-2)[GalNAc(a1-3)]Gal(b1-4)GlcNAc(b1-6)]GalNAc
# Outline: as §1
# [39] = target: Fuc(a1-2)[GalNAc(a1-3)]Gal(b1-4)GlcNAc(b1-6)GalNAc
# Outline: as §1
# [40] = target: Fuc(a1-2)[GalNAc(a1-3)]Gal(b1-4)[Fuc(a1-3)]GlcNAc
# Outline: as §1
# [41] = target: Fuc(a1-2)[GalNAc(a1-3)]Gal(b1-4)[Fuc(a1-3)]GlcNAc(b1-3)GalNAc
# Outline: as §1
# [42] = target: Fuc(a1-2)[GalNAc(a1-4)]Gal(b1-4)GlcNAc
# Outline: as §1
# [43] = target: Fuc(a1-2)[GalNAc(b1-3)]Gal
# Outline: as §1
binder,measurement,setting,value
B1,glycan array binding signal (z-score),[1],0.562
same,glycan array binding signal (z-score),Fuc(a1-2)Gal6S(b1-4)Glc,-0.521
same,glycan array binding signal (z-score),[2],-0.522
same,glycan array binding signal (z-score),Fuc(a1-2)[Gal(a1-3)]Gal,-0.174
same,glycan array binding signal (z-score),[3],0.023
same,glycan array binding signal (z-score),[4],0.04
same,glycan array binding signal (z-score),[5],-0.616
same,glycan array binding signal (z-score),[6],-0.225
same,glycan array binding signal (z-score),[7],0.757
same,glycan array binding signal (z-score),[8],-0.579
same,glycan array binding signal (z-score),[9],-0.13
same,glycan array binding signal (z-score),[10],-0.001
same,glycan array binding signal (z-score),[11],-0.34
same,glycan array binding signal (z-score),[12],-0.091
same,glycan array binding signal (z-score),[13],1.89
same,glycan array binding signal (z-score),[14],-0.563
same,glycan array binding signal (z-score),[15],-0.772
same,glycan array binding signal (z-score),[16],-0.176
same,glycan array binding signal (z-score),[17],0.263
same,glycan array binding signal (z-score),[18],1.15
same,glycan array binding signal (z-score),[19],-0.366
same,glycan array binding signal (z-score),[20],-0.109
same,glycan array binding signal (z-score),[21],0.06
same,glycan array binding signal (z-score),[22],-0.525
same,glycan array binding signal (z-score),[23],-0.38
same,glycan array binding signal (z-score),[24],-0.149
same,glycan array binding signal (z-score),[25],-0.419
same,glycan array binding signal (z-score),[26],-0.206
same,glycan array binding signal (z-score),[27],1.42
same,glycan array binding signal (z-score),[28],-0.101
same,glycan array binding signal (z-score),[29],-0.122
same,glycan array binding signal (z-score),[30],-0.418
same,glycan array binding signal (z-score),[31],-0.289
same,glycan array binding signal (z-score),[32],-0.26
same,glycan array binding signal (z-score),[33],0.21
same,glycan array binding signal (z-score),[34],2.8
same,glycan array binding signal (z-score),[35],-0.179
same,glycan array binding signal (z-score),[36],0.016
same,glycan array binding signal (z-score),[37],-0.302
same,glycan array binding signal (z-score),[38],0.062
same,glycan array binding signal (z-score),[39],-0.138
same,glycan array binding signal (z-score),[40],-0.201
same,glycan array binding signal (z-score),[41],1.56
same,glycan array binding signal (z-score),[42],-0.532
same,glycan array binding signal (z-score),[43],-0.386
